Among all 48,000 compounds or so, about 450 (0.94%) were called active. Not shown: some 19% with an inconclusive outcome. Calls follow the shape of the dose curve; as a rule, active = well fitted inhibition curve with a large enough effect; inconclusive = small, poorly fitted or top-dose-only effect; inactive = no such curve, though single readings can be large or run the other way. This is one part of the list.
Test: Primary qHTS for Identification of Small Molecule Inhibitors of Huntingtin Promoter Activity; also: nearly all actives have a fitted effect of over 50% in size
Conditions: HEK293 HTT promoter firefly luciferase reporter (activity 0% = vehicle and -100% = no light), 24 h; series mostly up to 57.5 µM; activity change, negative = inhibition: at the top concentration
In short: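 Firefly luciferase readout (Dual-Glo, 10 min RT) after 24 h, 37 °C compound exposure (final up to 57.5 uM) of HEK293 reporter cells cultured 24 h beforehand; PTC124 at 50 uM final as control inhibitor; activity scaled vehicle 0%, zero RLU -100%.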
Potency is read from the fitted curve at half-maximal effect.

SMILES | activity change, negative = inhibition | Potency
OCCN(CCO)c1ncnc2c1cnn2-c1ccc(F)cc1 | inactive: 44.5% | –
COc1ccccc1C(=O)Oc1ccc(C(c2c(C)[nH][nH]c2=O)c2c(C)[nH][nH]c2=O)cc1 | inactive: 0.781% [at 11.5 µM] | –
COc1cccc(CNC(=O)c2cc(S(=O)(=O)N3CCCCC3)c[nH]2)c1 | inactive: -9.92% | –
COc1ccc2oc(=O)c(C(=O)N3CCN(c4ccc(C)cc4)CC3)cc2c1 | inactive: 9.79% | –
COc1ccc(CC(=O)Nc2ccc(-c3nc4ccccc4s3)c(C)c2)cc1OC | inactive: -32.1% | –
Cc1csc2nc(COC(=O)c3ccccc3NC(=O)c3ccc(C(C)(C)C)cc3)cc(=O)n12 | inactive: -23.3% | –
O=C(CCCn1c(=O)c2cccn2c2ccccc21)NCCc1ccc(Cl)cc1 | inactive: -12.4% | –
Cc1ccc(S(=O)(=O)NC(=O)NN2CC3CCCC3C2)cc1 (configuration not stated) | inactive | –
CCOc1cccc2sc(N(Cc3cccnc3)C(=O)c3ccc(C#N)cc3)nc12 | inactive: -22.8% | –
Cc1c(CC(=O)NCc2ccc(F)cc2)c(=O)oc2cc(O)c(Cl)cc12 | inactive: -9.45% | –
COc1ccc(NC(=O)CC2NCCNC2=O)c(OC)c1 (configuration not stated) | inactive: -18.7% | –
Cc1cc(C)n(-c2nc3ccccc3nc2N2CCN(c3cccc(C(F)(F)F)c3)CC2)n1 | inactive: -3.74% | –
Cc1ccc(-n2c(SCc3ccccc3)nc3c([nH]c4ccccc43)c2=O)cc1 | inactive: -9.77% | –
COc1ccc(CNC(=O)c2ccc3nc(-c4ccc(F)cc4)c(-c4ccc(F)cc4)nc3c2)cc1 | inactive: -4.23% | –
CCC1(C)Cc2c(sc3nc(SC)n(-c4ccc(C)cc4)c(=O)c23)CO1 (configuration not stated) | inactive: -16.4% | –
Cc1nnc(NC(=O)c2ccccc2)s1 | inactive: 62.4% | –
O=C(Nc1ccc(-c2nc3cc(Cl)ccc3o2)cc1)c1cc2ccccc2o1 | inactive: -12.3% | –
Cc1cc(NC(=O)CCNS(=O)(=O)c2cccc3nsnc23)ccc1Br | inactive: -27.5% | –
Cc1ccc(NC(=O)c2ccccc2Br)c(C(=O)c2ccccc2)c1 | inactive: -23.6% | –
CC1CCN(c2nc3ccc(C(=O)NCc4ccccc4)cc3s2)CC1 | – | active: 112 nM
COc1ccc(Cn2c(SCc3ccc(C(=O)NC(C)c4ccccc4)cc3)nc3cccnc32)cc1 (configuration not stated) | inactive: -12.3% | –
CCOC(=O)CNC(=O)N1CCN(c2nnc(C)c3c(C)n(-c4ccc(Cl)cc4)nc23)CC1 | inactive: -15.8% | –
CCc1ccc(S(=O)(=O)c2nnn3c2nc(Nc2ccc(NC(C)=O)cc2)c2sccc23)cc1 | inactive: -4.05% | –
O=C(Nc1ccc(Cl)cc1)C(NS(=O)(=O)c1cccs1)c1ccccc1 (configuration not stated) | inactive: -20.6% | –

SMILES | activity change, negative = inhibition | Potency
Cc1cccc(OCC(=O)Nc2nnc(S(=O)(=O)N3CCc4ccccc43)s2)c1 | inactive: -15.3% | –
Cc1cccc(NC(=O)C(=O)NCCc2csc(-c3ccc(F)cc3)n2)c1C | inactive: -27.8% | –
CCN(C(=O)c1cn(CC)c(=O)c2cc(OC)c(OC)cc12)c1ccccc1F | inactive: -8.42% | –
COc1ccc(CCC(=O)NC2CC(=O)N(c3ccc(OC)cc3)C2)cc1 (configuration not stated) | inactive: -6.23% | –
Cc1cc(N2CCCCC2)nc2ccc(NC(=O)CCC(=O)N3CCN(c4ccccc4)CC3)cc12 | inactive: -15.1% | –
COc1cc(C(=O)Nc2ccccc2-c2nc(-c3ccc(C)cc3)no2)cc(OC)c1OC | inactive: 1.96% | –
COc1ccc(NC(=O)CN2C(=O)c3cccnc3Sc3ccccc32)cc1OC | inactive: 8.97% | –
Cc1cccc(N2CCN(C(=O)c3ccc(Nc4nc5ccccc5n5nnnc45)cc3)CC2)c1C | inactive: 16.4% | –
CCOC(=O)c1ccc(NC(=O)C2=C(C)Nc3nc(CCCO)nn3C2c2ccc(OC)cc2)cc1 (configuration not stated) | inactive: -17% | –
CC1=C(C(=O)Nc2cc(Cl)ccc2C)C(c2cccs2)n2ncnc2N1 (configuration not stated) | inactive: -2.12% | –
CCN1CCN(C(=O)N[C@H](C(=O)N[C@@H]2C(=O)N3C(C(=O)O)=C(CSc4nnnn4C)CS[C@@H]23)c2ccc(O)cc2)C(=O)C1=O | inactive: 1.19% [at 19.1 µM] | –
COc1ccc(CCNC(=O)C(C)n2c(=O)cc(-c3ccccc3)c3c(C)nn(C)c32)cc1OC (configuration not stated) | inactive: -1.49% | –
CCSc1nc(-c2ccccc2F)nc2c1Cc1c(CO)cnc(C)c1O2 | inactive: -13.9% | –
COc1cccc(N2CCN(C(=O)c3nn(C)c4c3CSc3ccc(C)cc3-4)CC2)c1 | inactive: -15.3% | –
CCC(=O)N1CCc2cc(CNC(=O)c3ccc(F)cc3)ccc21 | inactive: 21.2% | –
Cc1ccc(-c2nc3sccn3c2Nc2ccc(C)c(C)c2)cc1 | inactive: 0% | –
Cc1nn2c(=O)cc(COC(=O)c3ccccc3NC(=O)COc3ccccc3C)nc2s1 | inactive: -16.9% | –
Cc1ccc(SCc2nc(-c3ccc(C(=O)NCCc4ccc(Cl)cc4)cc3)oc2C)cc1 | inactive: -17.9% [at 11.5 µM] | –
CCN(CC)CCOc1ccc(Cc2ccccc2)cc1 | inactive | –
CCOC(=O)c1cc(OC(=O)c2ccccc2Cl)n(-c2ccccc2)n1 | inactive: -12.9% | –
COC(=O)c1cc2sc(Cl)cc2n1CC(=O)Nc1cc(C)cc(C)c1 | inactive: -15.5% | –
COC(=O)c1cc2occc2n1CC(=O)Nc1ccc(N(C)C)cc1 | inactive: 6.52% | –
Cc1ccc(CNC(=O)Cn2c(=O)n(-c3ccc(C)cc3)c(=O)c3c2c2cc(C)ccc2n3C)cc1 | inactive: 8.43% | –
